Changes are numbered by the printed parent chain. Numbers in names are those of the source. No constants are given. Whether binding was seen depends on the method and setting. For some assays here: In cells and extracts the contact can be indirect. Some results given as binding are weak or reduced against the parent protein; the word gives no strength. For some assays here: Where a sequence is shown, tags or fusion partners need not be part of it.
T1: S. cerevisiae (Sc) Csm1^69–181 (S. cerevisiae) (UniProt P25651)
T1 sequence: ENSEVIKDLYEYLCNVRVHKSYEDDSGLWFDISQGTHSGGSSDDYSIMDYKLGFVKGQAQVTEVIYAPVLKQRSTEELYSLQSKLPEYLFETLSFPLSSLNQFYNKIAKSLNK

T2: Sc His6-Csm1^69–190 (S. cerevisiae) (UniProt P25651)
T2 sequence: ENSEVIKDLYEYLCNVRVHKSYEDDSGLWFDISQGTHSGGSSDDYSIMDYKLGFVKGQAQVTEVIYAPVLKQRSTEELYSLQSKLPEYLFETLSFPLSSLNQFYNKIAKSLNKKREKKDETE

T3: S. pombe His6-Csm1^125–261 (S. pombe) (UniProt O13684)
T3 sequence: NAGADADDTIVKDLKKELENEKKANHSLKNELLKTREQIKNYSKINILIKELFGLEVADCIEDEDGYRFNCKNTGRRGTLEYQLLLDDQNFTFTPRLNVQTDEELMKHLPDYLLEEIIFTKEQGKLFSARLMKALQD

T4: Sp Mis13 5–17 peptide (Dsn1-N/Box 1), fluorescein isothiocyanate-labelled (S. pombe)
T4 sequence (peptide, fluorescein isothiocyanate-labelled at its N-terminus): PEEQEGFVFVRKG

B1: MBP-S. pombe Mis13 (Dsn1) residues 1–100, wild type, in vitro translated (domain or fragment, UniProt Q9UUB5 1-100)
chain: MKRKPEEQEGFVFVRKGKEKAGSKRRKSSVEDDPDTSQTDGLVELPVSDTPIVKRNKELRKGKGRRSSLDQRGKRASSIGTGFEALPHADVPSHEYYRHI
B2: S. pombe Csm1^125–261 I241D mutant (domain or fragment, UniProt O13684 125-261)
chain: T3 sequence with I117D

Legend:
[1] = molecular target: T1, S. cerevisiae (Sc) Csm1^69–181 (S. cerevisiae); assay: co-expression and co-purification; co-expressed in E. coli and purified as a stable complex (Ni affinity, ion exchange, size exclusion)
[2] = molecular target: T2, Sc His6-Csm1^69–190 (S. cerevisiae); assay: pull-down; Ni2+ pull-down: 10 μl in vitro translated 35S-labelled MBP-fused prey with 10 μg His6-tagged bait (S. pombe Csm1 125–261 or S. cerevisiae Csm1 69–190) in 50 μl 20 mM HEPES pH 7.5, 150 mM NaCl, 20 mM imidazole, 5% glycerol, 1 mM DTT, 0.1% NP-40, 90 min at 4 °C, then Ni-NTA beads; SDS-PAGE and phosphorimager; only the target purified
[3] = molecular target: T3, S. pombe His6-Csm1^125–261 (S. pombe); assay: as above
[4] = molecular target: T4, Sp Mis13 5–17 peptide (Dsn1-N/Box 1), fluorescein isothiocyanate-labelled (S. pombe); assay: fluorescence polarisation; Csm1 125–261 at 20 nM-250 μM with 20 nM FITC-labelled Mis13 5–17 peptide; 20 mM Tris 7.5, 300 mM NaCl, 10% glycerol, 0.01% NP-40, 1 mM DTT; triplicate; single-site binding model; both purified

Binder	binding [2]	further results
DLKFKRHKNKHIQGFPTLGERLDNLQDIKKAKRVENFNSS (domain or fragment, UniProt P40568 71-110) [Sc Dsn1^71–110 (co-expressed, without MBP)]		binding [1]: binds
DLKFKRHKNKHIQGFPTLGERLDNLQDIKKAKRVENFNSS (domain or fragment, UniProt P40568 71-110) [MBP-S. cerevisiae Dsn1 residues 71–110 (Box 1-2-3 region), wild type, in vitro translated]	binds	
B1		binding [3]: binds
DAKAKRHKNKHIQGFPTLGERLDNLQDIKKAKRVENFNSS (domain or fragment, UniProt P40568 71-110) [MBP-S. cerevisiae Dsn1 71–110 L72A F74A]	binds	
DLKFKRHKNKHIQGFPTAGERADNAQDIKKAKRVENFNSS (domain or fragment, UniProt P40568 71-110) [MBP-S. cerevisiae Dsn1 71–110 L88A L92A L95A]	binds	
DLKFKRHKNKHIQGFPTDGERDDNDQDIKKAKRVENFNSS (domain or fragment, UniProt P40568 71-110) [MBP-S. cerevisiae Dsn1 71–110 L88D L92D L95D]	binds	
DLKFKRHKNKHIQGFPTLGARLDALQAIKKAKRVENFNSS (domain or fragment, UniProt P40568 71-110) [MBP-S. cerevisiae Dsn1 71–110 E90A N94A D97A]	binds	
DLKFKRHKNKHIQGFPTLGKRLDKLQKIKKAKRVENFNSS (domain or fragment, UniProt P40568 71-110) [MBP-S. cerevisiae Dsn1 71–110 E90K N94K D97K]	binds	
DLKFKRHKNKHIQGFPTLGERLDNLQDIKKAKRAENANSS (domain or fragment, UniProt P40568 71-110) [MBP-S. cerevisiae Dsn1 71–110 V104A F107A]	no binding	
DLKFKRHKNKHIQGFPTLGERLDNLQDIKKAKRDENDNSS (domain or fragment, UniProt P40568 71-110) [MBP-S. cerevisiae Dsn1 71–110 V104D F107D]	no binding	
B2		binding [4]: no binding (tested: 250 μM)
